# Measured values taken from PubChem BioAssay AID1508623 (National Center for Advancing Translational Sciences (NCATS), 2021).
# The whole screen tested about 48,000 compounds, of which about 450 (0.94%) were called active. Roughly 19% stayed inconclusive and do not appear here. The call rests on the fitted dose curve; in most records, active means well fitted inhibition curve with a large enough effect; inconclusive means small, poorly fitted or top-dose-only effect; inactive means no such curve, though single readings can be large or run the other way. The list shows a part of the results.
# Assay: Primary qHTS for Identification of Small Molecule Inhibitors of Huntingtin Promoter Activity; further: nearly all actives have a fitted effect of over 50% in size
# Settings: HEK293 HTT promoter firefly luciferase reporter (activity 0% = vehicle and -100% = no light), 24 h; series mostly up to 57.5 µM; activity change, negative = inhibition: at the top concentration
# Summary of the method: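 Firefly luciferase signal from promoter-reporter HEK293 cells was scaled between vehicle (0%) and zero RLU (-100%). Compounds were tested at final concentrations of up to 57.5 uM over 24 h at 37 degrees C. PTC124 at 50 uM final served as control inhibitor.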
row,Compound,"activity change, negative = inhibition"
1,COc1ccc(NC(=O)CSc2cn(CC(=O)N3CCCCC3)c3ccccc23)c(OC)c1,inactive: -12.7%
2,Cc1cc(C)cc(Nc2ncnc3c2nc2n3CCCC2)c1,inactive: -22.2%
3,COc1ccc(N2CC(NC(=O)COc3ccccc3F)CC2=O)cc1OC (configuration not stated),inactive: -5.78%
4,CC(C)CCNC(=O)CN1C(=O)CCn2nc(-c3cn(C)c4ccccc34)cc21,inactive: 12.3%
5,COc1ccc(C)c2sc(NC(=O)c3ccc(S(=O)(=O)N4CCCCC4)cc3)nc12,inactive: -5.04%
6,CCCN1CCN(CCCNC(=O)c2cc3c(Cl)nc4ccccc4c3s2)CC1,inactive: -16.9%
7,CCCOc1ccc(/C=C/C(=O)Nc2sc(C)c(C)c2C(=O)OCC)cc1OC,inactive: -9.78%
8,Cc1nc(S(=O)(=O)N2CCN(c3ccc(Cl)cc3)CC2)cn1C,inactive: -7.56%
9,Cc1nnc(SCc2cc(=O)c3ccccc3[nH]2)s1,inactive: -13%
10,CCOc1ccc(CCNC(=O)c2ccc(-c3nc(CSc4ccc(C)cc4)c(C)o3)cc2)cc1,inactive: -23.9%
11,CCN(Cc1nc(-c2cccc(C)c2)no1)S(=O)(=O)c1ccc(C)cc1,inactive: -29.6%
12,Cc1cccc(C)c1NC(=O)CN1C(=O)CCSc2ccc(S(=O)(=O)N3CCCC3)cc21,inactive: -21.8%
13,Cc1ccc(C)c(N2C(=O)N(Cc3c(F)cccc3Cl)c3ccccc3S2(=O)=O)c1,inactive: -13.6%
14,COc1ccc(N(CC(=O)Nc2ccc(C)c(C)c2)S(=O)(=O)c2ccc(C)cc2)cc1OC,inactive: -18%
15,COC(=O)c1cc(NC(=O)Nc2ccc3snnc3c2)cc(C(=O)OC)c1,inactive: -11.8%
16,Cc1ccccc1-c1noc(-c2ccc(N3CCN(c4ccccc4)CC3)c([N+](=O)[O-])c2)n1,inactive: -3.05%
17,CC1CCN(C(=O)c2ccc3c(c2)N(Cc2ccccc2F)C(=O)c2ccccc2S3(=O)=O)CC1,inactive: -28.3%
18,Cc1ccc(NC(=O)C(=O)NCC(c2cccnc2)N2CCOCC2)cc1 (configuration not stated),inactive: -5.3%
19,Cc1c(Cl)cccc1-n1ncc(C(=O)N2CCN(C)CC2)c1C1CCN(C(=O)OC(C)(C)C)CC1,inactive: -5.66%
20,COc1ccc(S(=O)(=O)n2nc(C)c(S(=O)(=O)N3CCCCC3)c2C)cc1,inactive: -12.9%
21,COc1ccccc1N1CCN(C(=O)c2cc3c(=O)n(C)c4ccccc4c3s2)CC1,inactive: -5.54%
22,COc1ccc(CNC(=O)Cn2nc(C)n3cccc3c2=O)cc1,inactive: 11%
23,COc1ccc(-c2nc(SCC(=O)NC3CCCC3)c(-c3ccc(OC)cc3)[nH]2)cc1,inactive: -31.5%
24,CCc1cccc2c(CCO)c[nH]c12,inactive: 9.02%
25,COc1ccccc1-c1noc(-c2ccc(N3CCOCC3)c([N+](=O)[O-])c2)n1,inactive: 37.5%
26,CC(C)Cn1c(=O)c2ccccc2n2c(CCC(=O)N3CCN(c4cccc(Cl)c4)CC3)nnc12,inactive: 4.37%
27,CC(=O)c1ccc(N2CCN(c3ncnc4c3c(-c3ccccc3)cn4-c3ccc(C)c(Cl)c3)CC2)cc1,inactive: -19.1%
